Reference: the supplement of paper PMC8728848
The list shows a part of the results.

Legend:
Assay in all cases: glycan array binding signal (z-score within array); higher = stronger binding
Conditions in all cases: glycan notation: IUPAC condensed, linker removed
[1] = target: Neu5Ac(a2-8)Neu5Ac(a2-3)Gal(b1-4)GlcNAc
Procedure, shortened: (§1)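 Arrays were curated from the Consortium for Functional Glycomics database, 3228 in total, and kept only where the protein sequence was available. Binding is expressed as a within-array Z-score. This score was averaged across arrays of the same protein sequence at different concentrations or buffers and across linkers, and negative values can be read as non-binding.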

[2] = target: Neu5Ac(a2-8)Neu5Ac(a2-3)[Gal(b1-3)GalNAc(b1-4)]Gal(b1-4)Glc
Procedure, shortened: as §1

[3] = target: Neu5Ac(a2-8)Neu5Ac(a2-3)[GalNAc(b1-4)]Gal(b1-4)Glc
Procedure, shortened: as §1

[4] = target: Neu5Ac(a2-8)Neu5Ac(a2-8)Neu5Ac
Procedure, shortened: as §1

[5] = target: Neu5Ac(a2-8)Neu5Ac(a2-8)Neu5Ac(a2-3)Gal(b1-4)Glc
Procedure, shortened: as §1

[6] = target: Neu5Ac(a2-8)Neu5Ac(a2-8)Neu5Ac(a2-3)[Gal(b1-3)GalNAc(b1-4)]Gal(b1-4)Glc
Procedure, shortened: as §1

[7] = target: Neu5Ac(a2-8)Neu5Ac(a2-8)Neu5Ac(a2-3)[GalNAc(b1-4)]Gal(b1-4)Glc
Procedure, shortened: as §1

[8] = target: Neu5Ac(a2-8)Neu5Ac(a2-8)Neu5Ac(a2-8)Neu5Ac(a2-3)[GalNAc(b1-4)]Gal(b1-4)Glc
Procedure, shortened: as §1

[9] = target: Neu5Ac(a2-8)Neu5Gc(a2-3)Gal(b1-4)GlcNAc
Procedure, shortened: as §1

[10] = target: Neu5Ac(b2-6)Gal(b1-4)GlcNAc
Procedure, shortened: as §1

Neu5Ac(b2-6)GalNAc = target: Neu5Ac(b2-6)GalNAc
Procedure, shortened: as §1

[11] = target: Neu5Ac9Ac(a2-3)Gal(b1-3)GlcNAc
Procedure, shortened: as §1

[12] = target: Neu5Ac9Ac(a2-3)Gal(b1-4)GlcNAc
Procedure, shortened: as §1

[13] = target: Neu5Ac9Ac(a2-6)Gal(b1-4)GlcNAc
Procedure, shortened: as §1

[14] = target: Neu5Gc(a2-3)Gal(b1-3)GlcNAc
Procedure, shortened: as §1

[15] = target: Neu5Gc(a2-3)Gal(b1-3)[Fuc(a1-4)]GlcNAc
Procedure, shortened: as §1

Neu5Gc(a2-3)Gal(b1-4)Glc = target: Neu5Gc(a2-3)Gal(b1-4)Glc
Procedure, shortened: as §1

[16] = target: Neu5Gc(a2-3)Gal(b1-4)GlcNAc
Procedure, shortened: as §1

[17] = target: Neu5Gc(a2-3)Gal(b1-4)GlcNAc(b1-3)Gal(b1-4)GlcNAc(b1-2)Man(a1-3)[Neu5Gc(a2-3)Gal(b1-4)GlcNAc(b1-3)Gal(b1-4)GlcNAc(b1-2)Man(a1-6)]Man(b1-4)GlcNAc(b1-4)GlcNAc
Procedure, shortened: as §1

[18] = target: Neu5Gc(a2-3)Gal(b1-4)[Fuc(a1-3)]GlcNAc
Procedure, shortened: as §1

[19] = target: Neu5Gc(a2-6)Gal(b1-4)GlcNAc
Procedure, shortened: as §1

Neu5Gc(a2-6)GalNAc = target: Neu5Gc(a2-6)GalNAc
Procedure, shortened: as §1

[20] = target: Neu5Gc(a2-8)Neu5Ac(a2-3)Gal(b1-4)GlcNAc
Procedure, shortened: as §1

[21] = target: Neu5Gc(a2-8)Neu5Gc(a2-3)Gal(b1-4)GlcNAc
Procedure, shortened: as §1

[22] = target: Neu5Gc(a2-8)Neu5Gc(a2-3)Gal(b1-4)GlcNAc(b1-3)Gal(b1-4)GlcNAc
Procedure, shortened: as §1

[23] = target: Neu5Gc(a2-8)Neu5Gc(a2-6)Gal(b1-4)GlcNAc
Procedure, shortened: as §1

[24] = target: Neu5Gc(b2-6)Gal(b1-4)GlcNAc
Procedure, shortened: as §1

B1: Siglec-F (Mus musculus), Q920G3 (protein)
chain: MRWAWLLPLLWAGCLATDGYSLSVTGSVTVQEGLCVFVACQVQYPNSKGPVFGYWFREGANIFSGSPVATNDPQRSVLKEAQGRFYLMGKENSHNCSLDIRDAQKIDTGTYFFRLDGSVKYSFQKSMLSVLVIALTEVPNIQVTSTLVSGNSTKLLCSVPWACEQGTPPIFSWMSSALTSLGHRTTLSSELNLTPRPQDNGTNLTCQVNLPGTGVTVERTQQLSVIYAPQKMTIRVSWGDDTGTKVLQSGASLQIQEGESLSLVCMADSNPPAVLSWERPTQKPFQLSTPAELQLPRAELEDQGKYICQAQNSQGAQTASVSLSIRSLLQLLGPSCSFEGQGLHCSCSSRAWPAPSLRWRLGEGVLEGNSSNGSFTVKSSSAGQWANSSLILSMEFSSNHRLSCEAWSDNRVQRATILLVSGPKVSQAGKSETSRGTVLGAIWGAGLMALLAVCLCLIFFTVKVLRKKSALKVAATKGNHLAKNPASTINSASITSSNIALGYPIQGHLNEPGSQTQKEQPPLATVPDTQKDEPELHYASLSFQGPMPPKPQNTEAMKSVYTEIKIHKC
**Q.** Which “glycan array binding signal (z-score)” value [1] does the source give for B1 here?
**A.** Its value is -0.17.

**Q.** What about the “glycan array binding signal (z-score)” value [2] of the same binder?
**A.** The value was -0.036.

**Q.** What about the “glycan array binding signal (z-score)” value [3] of the same binder?
**A.** The value was -0.119.

**Q.** What about the “glycan array binding signal (z-score)” value [4] of the same binder?
**A.** Its value is -0.127.

**Q.** What about the “glycan array binding signal (z-score)” value [5] of the same binder?
**A.** Its value is -0.116.

**Q.** What about the “glycan array binding signal (z-score)” value [6] of the same binder?
**A.** Its value is -0.135.

**Q.** What about the “glycan array binding signal (z-score)” value [7] of the same binder?
**A.** The value was -0.027.

**Q.** And the “glycan array binding signal (z-score)” value [8]?
**A.** Its value is -0.104.

**Q.** What about the “glycan array binding signal (z-score)” value [9] of the same binder?
**A.** Its value is -0.163.

**Q.** What about the “glycan array binding signal (z-score)” value [10] of the same binder?
**A.** Its value is -0.126.

**Q.** What about the “glycan array binding signal (z-score)” value (Neu5Ac(b2-6)GalNAc) of the same binder?
**A.** Its value is -0.124.

**Q.** What about the “glycan array binding signal (z-score)” value [11] of the same binder?
**A.** The value was -0.092.

**Q.** What about the “glycan array binding signal (z-score)” value [12] of the same binder?
**A.** The value was -0.121.

**Q.** What about the “glycan array binding signal (z-score)” value [13] of the same binder?
**A.** Its value is -0.121.

**Q.** And the “glycan array binding signal (z-score)” value [14]?
**A.** The value was -0.118.

**Q.** And the “glycan array binding signal (z-score)” value [15]?
**A.** The value was -0.112.

**Q.** What about the “glycan array binding signal (z-score)” value (Neu5Gc(a2-3)Gal(b1-4)Glc) of the same binder?
**A.** The value was -0.118.

**Q.** What about the “glycan array binding signal (z-score)” value [16] of the same binder?
**A.** Its value is -0.126.

**Q.** What about the “glycan array binding signal (z-score)” value [17] of the same binder?
**A.** The value was -0.13.

**Q.** And the “glycan array binding signal (z-score)” value [18]?
**A.** The value was -0.121.

**Q.** And the “glycan array binding signal (z-score)” value [19]?
**A.** The value was -0.111.

**Q.** What about the “glycan array binding signal (z-score)” value (Neu5Gc(a2-6)GalNAc) of the same binder?
**A.** The value was -0.115.

**Q.** What about the “glycan array binding signal (z-score)” value [20] of the same binder?
**A.** The value was -0.164.

**Q.** What about the “glycan array binding signal (z-score)” value [21] of the same binder?
**A.** The value was -0.15.

**Q.** What about the “glycan array binding signal (z-score)” value [22] of the same binder?
**A.** Its value is -0.158.

**Q.** And the “glycan array binding signal (z-score)” value [23]?
**A.** The value was -0.169.

**Q.** And the “glycan array binding signal (z-score)” value [24]?
**A.** Its value is -0.051.
